# Results published in the supplement of paper PMC12340641.
# The full ranking holds about 1,000 compounds; the median of “relative growth in counter assay (no AraC = 100%, AraC + DMSO = 0%)” is about -1.1, and the highest 2% start at about 20. Some of the results follow.
# System: HEK293FT dCK*-only
# Assay: relative growth in counter assay (no AraC = 100%, AraC + DMSO = 0%); higher = more growth rescue independent of IKZF1
# Conditions: compound concentration: 5 uM; AraC concentration: 0.3 uM; overnight pretreatment + 4 days AraC
# Procedure: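 Growth recovery screen of the molecular-glue-like (Specs) library. HEK293FT cells expressing a dCK*-IKZF1 fusion (primary) or dCK* alone (counter) were pretreated overnight with compound at 5 uM, then given 0.3 uM AraC for 4 days. Hoechst nuclei were counted by imaging. Primary: normalised to pomalidomide (100%) and DMSO (0%), mean of 2 replicates. Counter: normalised to no-AraC (100%) and AraC+DMSO (0%), single replicate.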
row,SMILES,relative growth in counter assay [%]
1,CC(=O)Nc1ccc(Oc2ccc3c(c2)C(=O)N(c2cccc(C)c2)C3=O)cc1,-8.86
2,O=C1CCC(N2C(=O)c3cccc(NCc4ccc(C(=O)O)cc4)c3C2=O)C(=O)N1 (centres undefined),2.66
3,CNC(=O)C1(c2cccc(Nc3ncc(C)s3)n2)CCN(C(=O)C2CCCCC2)CC1,-21.2
4,COc1cc(NS(=O)(=O)c2ccc(Nc3nc(-c4ccc(Cl)cc4)cs3)cc2)nc(OC)n1,-1.17
5,Cc1cnc(Nc2cccc(C3CN(C(=O)Cn4cnc5ccccc54)CCO3)n2)s1 (centres undefined),-16.3
6,CC(Oc1ccccc1)C(=O)Nc1ccc(S(=O)(=O)Nc2ncccn2)cc1 (centres undefined),0.06
7,Cc1cc(C)nc(NS(=O)(=O)c2ccc(NC(=O)COc3ccccc3Cl)cc2)n1,-1.6
8,Cc1csc(Nc2cccc(C3CCCN3C(=O)c3ccc4[nH]c(C(C)C)nc4c3)n2)n1 (centres undefined),30.5
9,CC(=O)c1ccc(N2C(=O)c3ccc(Oc4ccccc4)cc3C2=O)cc1,-22.4
10,COc1ccc2[nH]c3nc(SCC(=O)Nc4cc(Cl)ccc4OC)nnc3c2c1,-15.7
11,Cc1ccc2[nH]c3nc(SCC(=O)Nc4ccc(F)cc4)nnc3c2c1,4.95
12,COc1cc(NS(=O)(=O)c2ccc(NC(=S)NC(=O)/C=C/c3ccccc3)cc2)nc(OC)n1,-4.27
13,COc1cccc(C(=O)Nc2ccc(S(=O)(=O)Nc3cc(C)nc(C)n3)cc2)c1,0.7
14,O=C(Cc1cccs1)Nc1ccc(Oc2ccc3c(c2)C(=O)N(c2ccc(O)cc2)C3=O)cc1,-1.16
15,CC(C)C(=O)Nc1ccc(C(=O)Nc2ccc(S(=O)(=O)Nc3ncccn3)cc2)cc1,-9.03
16,O=C(CSCc1ccccc1)Nc1ccc(S(=O)(=O)Nc2ncccn2)cc1,3.78
17,CCOc1ccc(/C=C/C(=O)Nc2ccc(S(=O)(=O)Nc3cc(C)nc(C)n3)cc2)cc1OC,-8.34
18,Cc1ccc(NC(=O)CSc2nnc3c(n2)[nH]c2ccc(F)cc23)cc1Cl,-1.21
19,COc1ccc2[nH]c3nc(SCC(=O)Nc4cccc(F)c4)nnc3c2c1,-13.9
20,Cc1cnc(Nc2cccc(C3CN(C(=O)C4C5CCCCC54)CCO3)n2)s1 (centres undefined),-3.98

row,SMILES,relative growth in counter assay [%]
1,Cc1ccc(C)c(OCC(=O)Nc2ccc(S(=O)(=O)Nc3ncccn3)cc2)c1C,-12.5
2,Cc1cc(Cl)ccc1OCCCC(=O)Nc1ccc(S(=O)(=O)Nc2ncccn2)cc1,-5.75
3,Cc1ccc(OCC(=O)Nc2ccc(S(=O)(=O)Nc3cc(C)nc(C)n3)cc2)c(C)c1,-2.7
4,COc1ccc(CC(=O)Nc2ccc(S(=O)(=O)Nc3cc(OC)nc(OC)n3)cc2)cc1,4.05
5,COCC(=O)Nc1ccc(S(=O)(=O)Nc2ccccn2)cc1,-0.55
6,Cc1cc(C)cc(OCC(=O)Nc2ccc(S(=O)(=O)Nc3cc(C)nc(C)n3)cc2)c1,7.68
7,Cc1cnc(Nc2cccc(C3CCN(C(=O)C4CCCCC4C(=O)N4CCCC4)CC3)n2)s1 (centres undefined),-22.8
8,CC(C)c1ccccc1OCC(=O)Nc1ccc(S(=O)(=O)Nc2ccccn2)cc1,-2.81
9,Cc1ccnc(NS(=O)(=O)c2ccc(NC(=O)Cc3c(F)cccc3Cl)cc2)n1,10
10,CNc1cc(C(=O)N2CCOC(c3cccc(Nc4nc(C)c(C)s4)n3)C2)ccn1 (centres undefined),10.5
11,O=C1CCC(N2C(=O)c3cccc(O)c3C2=O)C(=O)N1 (centres undefined),2.54
12,O=C(CCC1CCCCC1)Nc1ccc(S(=O)(=O)Nc2ncccn2)cc1,-4.09
13,Cc1cc(NS(=O)(=O)c2ccc(NC(=O)c3ccccc3C)cc2)nc(C)n1,3.02
14,Cc1cc(NS(=O)(=O)c2ccc(NC(=O)COc3ccccc3Cl)cc2)nc(C)n1,-6.2
15,O=C(Nc1ccc(S(=O)(=O)Nc2ncccn2)cc1)c1ccc2c(c1)OCO2,-0.73
16,COc1cc(NS(=O)(=O)c2ccc(NC(=O)/C=C/c3ccco3)cc2)nc(OC)n1,1.2
17,Cc1cnc(Nc2cccc(C(C(=O)N(C)C)C3CCN(C(=O)c4cccc(Cl)c4F)CC3)n2)s1 (centres undefined),6.99
18,CCOC(=O)c1nc[nH]c1C(=O)N1CCOC(c2cccc(Nc3ncc(C)s3)n2)C1 (centres undefined),-2.22
19,CCc1nccn1CC(=O)N1CCOC(c2cccc(Nc3ncc(C)s3)n2)C1 (centres undefined),-1.5
20,Cc1cnc(Nc2cccc(C3CCN(C(=O)C4CC(=O)N(C)C4)CC3)n2)s1 (centres undefined),-12

row,SMILES,relative growth in counter assay [%]
1,O=C(CN1C(=O)c2ccccc2C1=O)Nc1ccc(S(=O)(=O)Nc2ncccn2)cc1,-1.34
2,COc1ccc(OCCCC(=O)Nc2ccc(S(=O)(=O)Nc3nc(C)cc(C)n3)cc2)cc1,-2.05
3,Cc1cc(C)nc(NS(=O)(=O)c2ccc(NC(=O)CCCOc3ccc(Cl)cc3)cc2)n1,-2.13
4,Cc1cc(C)nc(NS(=O)(=O)c2ccc(NC(=O)c3ccccc3C(=O)O)cc2)n1,0
5,Cc1ccnc(NS(=O)(=O)c2ccc(NC(=O)C3CCCCC3)cc2)n1,-6.81
6,Cc1cnc(Nc2cccc(C3CN(C(=O)Cn4c(CC(C)C)nc5ccccc54)CCO3)n2)s1 (centres undefined),-19.8
7,Cc1cccc(C(=O)Nc2ccc(S(=O)(=O)Nc3cc(C)nc(C)n3)cc2)c1,3.02
8,O=C1CCC(N2C(=O)c3cccc(Br)c3C2=O)C(=O)N1 (centres undefined),11.1
9,CC(=O)Nc1ccc(Oc2ccc3c(c2)C(=O)N(c2cccc(OC(C)=O)c2)C3=O)cc1,13.4
10,O=C(CCCOc1ccccc1)Nc1ccc(S(=O)(=O)Nc2ccccn2)cc1,1.5
11,CO[C@H]1CC[C@H](C(=O)N2CCOC(c3cccc(Nc4ncc(C)s4)n3)C2)CC1 (some centres undefined),-1.98
12,Cc1cc(C)nc(NS(=O)(=O)c2ccc(NC(=O)CCN3C(=O)c4ccccc4C3=O)cc2)n1,-7.05
13,O=C(NCc1cnc(Nc2cccc(C3CCN(C(=O)C4CCCCC4)CC3)n2)s1)c1cccc(F)c1,-9.34
14,CCC(=O)Nc1ccc(Oc2ccc3c(c2)C(=O)N(c2ccc(O)cc2)C3=O)cc1,-5.77
15,COc1ccc(NS(=O)(=O)c2ccc(NS(=O)(=O)c3ccccc3[N+](=O)[O-])cc2)nn1,-1.87
16,Cc1cnc(Nc2cccc(C3CCN(C(=O)CC4(O)CCCCC4)CC3)n2)s1,-22.4
17,Cc1cc(C)nc(NS(=O)(=O)c2ccc(NC(=O)COc3ccc4ccccc4c3)cc2)n1,-1.85
18,COCC(=O)N1CCCC1c1cccc(Nc2nc(C)cs2)n1 (centres undefined),-10.8
19,Cc1cc(C)nc(SCC(=O)Nc2ccc(S(=O)(=O)Nc3ncccn3)cc2)n1,19.9
